Laboratory results published in the supplement of paper PMC12217912.
Some of the results follow. Sequences were assembled here from the parent chain. Inactive controls read about 0.05.

B1: TEV protease; numbered along this chain (parent)
chain: MGESLFKGPRDYNPISSSICHLTNESDGHTTSLYGIGFGPFIITNKHLFRRNNGTLVVQSLHGVFKVKDTTTLQQHLVDGRDMIIIRMPKDFPPFPQKLKFREPQREERICLVTTNFQTKSMSSMVSDTSCTFPSGDGIFWKHWIQTKDGQCGSPLVSTRDGFIVGIHSASNFTNTNNYFTSVPKNFMELLTNQEAQQWVSGWRLNADSVLWGGHKVFMVKPEEPFQPVKEATQL

Variants of: B1
Test: raw area under fraction-flipped curve 0-4 h after induction (AUC4h, not background-subtracted), DNA-recorder readout of cleavage of the substrate (dimensionless); higher = more cleavage of the substrate by the protease variant
Details: temperature: 34 °C; time window: 0-4 h after rhamnose induction
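Also: Bxb1 expression induced with 0.2% (w/v) L-rhamnose at OD600 near 0.5, cultures sampled hourly, flipped fraction per protease–substrate barcode pair counted by paired-end Illumina sequencing.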

Variant | area with substrate EALYFQS | area with substrate ECLYFQS | area with substrate EDLYFQS | area with substrate EELYFQS | area with substrate EFLYFQS | area with substrate EGLYFQS | area with substrate EILYFQS | area with substrate EKLYFQS | area with substrate ELLYFQS | area with substrate EMLYFQS | area with substrate EPLYFQS | area with substrate EQLYFQS | area with substrate ERLYFQS | area with substrate ESLYFQS | area with substrate ETLYFQS | area with substrate EVLYFQS | area with substrate EWLYFQS | area with substrate EYLYFQS | area with substrate EHLYFQS
MGESLFKGPRDYNPISSSICHLTNESDGHTTSLYGIGFGPFIITNKHLFRRNNGTLVVQSLHGVFKVKDTTTLQQHLVDGRDMIIIRMPKDFPPFPQKLKFREPQREERICLVTTNFQTKSMSSMVSDTSCTFPSGDGIFWKHWIQTKDVQCGSPLVSTRDGFIVGIHSASNFTNTNNYFTSVPKNFMELLTNQEAQQWVSGWRLNADSVLWGGHKVFMVKPEEPFQPVKEATQL [G150V] | 0.0759 | 0.0694 | 0.0769 | 0.0616 | 0.0571 | 0.0585 | 0.0582 | 0.0663 | 0.0583 | 0.0592 | 0.0645 | 0.0558 | 0.0546 | 0.0545 | 0.0559 | 0.0571 | 0.06 | 0.0503 | 
MGESLFKGPRDYNPISSSICHETNESDGHTTSLYGIGFGPFIITNKHLFRRNNGTLVVQSLHGVFKVKDTTTLQQHLVDGRDMIIIRMPKDFPPFPQKLKFREPQREERICLVTTNFQTKSMSSMVSDTSCTFPSGDGIFWKHWIQTKDGQCGSPLVSTRDGFIVGIHSASNFTNTNNYFTSVPKNFMELLTNQEAQQWVSGWRLNADSVLWGGHKVFMVKPEEPFQPVKEATQL [L22E] | 0.0433 | 0.0519 | 0.0479 | 0.0362 |  | 0.0448 | 0.0422 | 0.0496 | 0.0454 |  | 0.0425 |  |  | 0.0384 |  | 0.0569 | 0.0476 | 0.0371 | 0.0505
MGESLFKGPRDYNPISSSICHLTNESDGHTTSLYGIGFGPFIITNKHLFRRNNGTLVVQSLHGVFKVKDTTTLQQHLVDGRDMIIIRMPKDFPPFPQKLKFREPQREERICLVTTNFQTKSMSSMVSDTSCTFPSGDGIFWKHWIQTKDGQCGSPHVSTRDGFIVGIHSASNFTNTNNYFTSVPKNFMELLTNQEAQQWVSGWRLNADSVLWGGHKVFMVKPEEPFQPVKEATQL [L156H] | 0.0573 | 0.0351 | 0.0458 | 0.0678 | 0.0856 |  | 0.0823 | 0.0668 | 0.0558 | 0.0585 | 0.0562 |  | 0.0489 | 0.0597 | 0.0589 | 0.0585 | 0.0746 |  | 0.0672
MGESLFKGPRDYNPISSSICHLTNESDGHTTSLYGIGFGPFIITNKHLFRRNNGTLVVQSLHGVFKVKDTTTLQQHLVDGRDMIIIRMPKDFPPFPQKLKFREPQREERICLVTTNFQTKSMSSMVSDTSCTFPSGDGIFWKHWITTKDGQCGSPLVSTRDGFIVGIHSASNFTNTNNYFTSVPKNFMELLTNQEAQQWVSGWRLNADSVLWGGHKVFMVKPEEPFQPVKEATQL [Q146T] | 0.119 | 0.0998 | 0.118 | 0.115 | 0.112 | 0.102 | 0.0748 | 0.0595 |  | 0.105 |  | 0.12 | 0.0948 | 0.0959 |  | 0.0927 | 0.0911 | 0.0912 | 0.104
MGESLFKGPRDYNPISSSICHLTNESDGHTTSLYGIGFGPFIITNKHLFRRNNGTLVVQSLHGVFKVKDTTTLQQHLVDGRDMIIIRMPKDFPPFPQKLKFREPQREERICLVTTNFQTKSMSSMVSDTSCTFPSGDGIFWKHWIKTKDGQCGSPLVSTRDGFIVGIHSASNFTNTNNYFTSVPKNFMELLTNQEAQQWVSGWRLNADSVLWGGHKVFMVKPEEPFQPVKEATQL [Q146K] | 0.119 | 0.177 | 0.147 | 0.102 |  | 0.11 | 0.0986 | 0.113 | 0.0837 | 0.112 | 0.0867 | 0.0984 | 0.102 | 0.105 |  | 0.11 | 0.105 | 0.0895 | 0.114
MGESLFKGPRDYNPISSSICHLTNESCGHTTSLYGIGFGPFIITNKHLFRRNNGTLVVQSLHGVFKVKDTTTLQQHLVDGRDMIIIRMPKDFPPFPQKLKFREPQREERICLVTTNFQTKSMSSMVSDTSCTFPSGDGIFWKHWIQTKDGQCGSPLVSTRDGFIVGIHSASNFTNTNNYFTSVPKNFMELLTNQEAQQWVSGWRLNADSVLWGGHKVFMVKPEEPFQPVKEATQL [D27C] | 0.104 | 0.0823 | 0.113 | 0.121 |  |  | 0.0526 | 0.101 |  | 0.113 | 0.0666 | 0.12 | 0.12 | 0.0892 |  | 0.108 | 0.0852 |  | 0.102
MGESLFKGPRDYNPISSSICHLTNESDGHTTSLYGIGFGPFIITNKHLFRRNNGTLVVQSLHGVFKVKDTTTLQQHLVDGRDMIIIRMPKDFPPFPQKLKFREPQREERICLVTTNFQTKSMSSMVSDTSCTFPSGDGIFWKHWIQTKDGQCGSPLLSTRDGFIVGIHSASNFTNTNNYFTSVPKNFMELLTNQEAQQWVSGWRLNADSVLWGGHKVFMVKPEEPFQPVKEATQL [V157L] | 0.104 | 0.0863 | 0.134 | 0.111 |  |  | 0.0742 |  |  | 0.09 | 0.111 | 0.0858 | 0.0993 | 0.0984 |  | 0.0867 | 0.126 | 0.117 | 0.0936
MGESLFKGPRDYNPISSSICHLTNESDGHTTSLYGIGFGPFIITNKHLFRRNNGTLVVQSLHGVFKVKDTTTLQQHLVDGRDMIIIRMPKDFPPFPQKLKFREPQREERICLVTTNFQTKSMDSMVSDTSCTFPSGDGIFWKHWIQTKDGQCGSPLVSTRDGFIVGIHSASNFTNTNNYFTSVPKNFMELLTNQEAQQWVSGWRLNADSVLWGGHKVFMVKPEEPFQPVKEATQL [S123D] | 0.109 | 0.109 | 0.129 | 0.121 |  |  | 0.0964 | 0.104 | 0.0867 | 0.117 | 0.157 | 0.11 |  | 0.1 |  | 0.112 | 0.0952 | 0.0857 | 0.123
